# According to the supplement of paper PMC3334620:
# The full ranking holds about 33,000 sequences; the median of “E-score (-0.5 to 0.5)” is about -0.035, and the highest 2% start at about 0.35. Some of the results follow.
# Target: T1, Pdr3 (UniProt P33200)
# T1 sequence: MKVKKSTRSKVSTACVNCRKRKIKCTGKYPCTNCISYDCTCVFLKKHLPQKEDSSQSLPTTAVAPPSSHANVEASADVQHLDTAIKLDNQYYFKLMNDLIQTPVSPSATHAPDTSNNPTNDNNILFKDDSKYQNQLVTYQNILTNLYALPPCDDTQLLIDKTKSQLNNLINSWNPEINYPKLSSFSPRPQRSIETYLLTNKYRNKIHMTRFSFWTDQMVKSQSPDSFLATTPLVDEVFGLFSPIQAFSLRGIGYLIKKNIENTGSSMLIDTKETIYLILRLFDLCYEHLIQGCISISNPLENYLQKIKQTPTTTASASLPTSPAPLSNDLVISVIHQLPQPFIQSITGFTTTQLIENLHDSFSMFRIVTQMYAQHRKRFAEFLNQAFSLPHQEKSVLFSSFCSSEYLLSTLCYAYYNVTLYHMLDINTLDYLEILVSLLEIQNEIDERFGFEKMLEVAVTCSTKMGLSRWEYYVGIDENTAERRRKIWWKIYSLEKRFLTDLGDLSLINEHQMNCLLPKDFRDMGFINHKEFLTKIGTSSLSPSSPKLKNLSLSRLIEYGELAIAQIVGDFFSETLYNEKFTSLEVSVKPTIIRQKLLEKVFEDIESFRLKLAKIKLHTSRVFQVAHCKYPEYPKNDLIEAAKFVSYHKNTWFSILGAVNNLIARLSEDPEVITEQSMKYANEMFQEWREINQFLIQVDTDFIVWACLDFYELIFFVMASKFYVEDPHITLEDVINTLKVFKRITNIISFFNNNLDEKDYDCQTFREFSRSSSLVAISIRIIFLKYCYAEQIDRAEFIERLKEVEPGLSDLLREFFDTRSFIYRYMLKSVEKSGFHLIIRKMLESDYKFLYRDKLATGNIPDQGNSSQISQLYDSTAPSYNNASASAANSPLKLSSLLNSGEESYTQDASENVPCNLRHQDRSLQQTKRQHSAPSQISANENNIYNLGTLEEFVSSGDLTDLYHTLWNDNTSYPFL
# Test: PBM E-score (8-mer binding enrichment) (E-score (-0.5 to 0.5)); higher = stronger / more preferred TF binding; most listed sequences are background and not binding sites
# Settings: protein concentration: 200 nM; construct: GST-full length
# Procedure: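 Universal 'all 10-mer' protein binding microarrays (Agilent AMADID 015681) probed with GST-tagged S. cerevisiae TFs (full-length or DBD) made by in vitro transcription/translation (PURExpress), about 100-200 nM. Bound TF was detected with fluorescent anti-GST. Each ungapped 8-mer (which stands for itself and its reverse complement) is scored by the PBM enrichment score (E-score), a modified Wilcoxon-Mann-Whitney statistic from -0.5 to +0.5, computed with the Universal PBM Analysis Suite. Scale: above 0.35 generally sequence-specific binding.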
row,Sequence,PBM E-score
1,CGAGTGCA,0.0689
2,AGCTTATC,0.126
3,GCGGTGGA,0.129
4,AGGCGGAT,0.251
5,CCTTACTC,0.217
6,ATTGCGAC,0.197
7,CACTTCTC,-0.121
8,GGTGAGCA,-0.179
9,CATAGCAA,-0.108
10,CTCGTAAG,-0.0204
11,GCATGTAC,-0.133
12,ACTTAGTC,-0.121
13,TCTAGCAA,-0.14
14,CGTCCTTC,0.0824
15,AGAAAGGC,-0.119
16,CGTATAGA,-0.231
17,GCATCTAA,0.0131
18,CACGGAAC,0.483
19,ATTCCGAA,0.436
20,CCCTATCG,-0.0588
21,ATGGGAAC,0.0766
22,GGAGAGAC,0.0135
23,AGCTTGTA,-0.186
24,ACTTAGAC,-0.156
25,GCCCTACA,-0.0817

row,Sequence,PBM E-score
1,ATAAAGAT,-0.00554
2,ACTTAAAT,-0.221
3,ACTGTAAG,0.135
4,TATAGTGA,-0.169
5,TCGTAGCA,-0.11
6,GTGTTAAC,-0.159
7,CGCCCACC,-0.0811
8,CACGTTTC,0.00301
9,ATCACTGG,-0.0407
10,ATGCTCAA,-0.0315
11,ATCTTGCG,0.0369
12,ACGCAGTA,-0.0886
13,GGATGTCA,0.115
14,CTCTGCTA,-0.194
15,CCGTGAGA,0.11
16,CATCATAG,-0.104
17,CCTACCAC,-0.189
18,ATAGCGGG,0.0639
19,GGACACAA,0.2
20,CAGTCGCG,0.00906
21,ACCGGATG,0.249
22,AGGATGAT,-0.0997
23,CGACGCGA,0.112
24,GGCATCCC,-0.0106
25,GGCTCAGA,-0.0859

row,Sequence,PBM E-score
1,CCGGGTCG,0.378
2,CGGCAAGA,0.129
3,ACGGTGCT,-0.138
4,GGCACTAA,0.156
5,CTTGTAGC,-0.0878
6,ACGCGGAC,0.229
7,GCTGGTAC,0.029
8,CCACGCCA,-0.223
9,GTCGTAGA,-0.0356
10,AGCCCCCT,-0.371
11,CATCCAGA,-0.121
12,CCACACAA,-0.217
13,CGTGGTGA,-0.0889
14,ACTAGCAA,-0.0343
15,CGGCGCGA,0.217
16,AGCCCACT,-0.181
17,ACCCGATA,0.158
18,CAACCTTC,-0.139
19,AGTAAGCA,-0.258
20,GCTTTTCC,0.142
21,TCTCGCAA,-0.0666
22,GAGCATCA,-0.157
23,TCTGATCA,-0.00344
24,GAGGGCTA,-0.298
25,AGCTCCTA,-0.135

row,Sequence,PBM E-score
1,CTATGCGC,0.138
2,AGCCGTCC,0.188
3,ACATCCAC,-0.04
4,AAAAATAG,0.00396
5,AATGGTAC,-0.238
6,GGTGCTGA,-0.104
7,GAGTGTTA,0.0189
8,ACTTTGAT,0.00528
9,AAAGTACA,-0.103
10,ATTCCAGG,-0.00904
11,AACCCCAA,0.0286
12,ACCTGTAC,-0.201
13,AGACCTCG,0.0431
14,CCCGTCCA,0.0664
15,GATAAGTA,0.0326
16,CCATAGTC,-0.138
17,GAATGGTC,0.18
18,ACAATGGT,-0.142
19,AAGCGATT,-0.0256
20,CGAACGAC,-0.0461
21,CCTGACAA,-0.14
22,TACGGCAA,-0.034
23,AGGCTGTC,-0.152
24,CCAGGGTC,-0.2
25,GATCCGCA,0.319

row,Sequence,PBM E-score
1,CCCGCATC,0.0416
2,ACTTCGTG,-0.101
3,CGAAAATC,0.027
4,TATCGTCA,-0.162
5,ACGCGGCT,-0.0608
6,AGCTACAT,-0.251
7,AGTACCTG,-0.176
8,CCATTCTA,-0.142
9,TCAAGCAA,-0.125
10,AGCCGACG,0.13
11,CTTCGGGA,0.199
12,CCGCGTGA,0.172
13,CGAGATCA,0.109
14,CCACTCCA,0.0401
15,CATTGCCA,-0.0846
16,CAGTGAAC,0.0362
17,GCGCGGAA,0.464
18,CAGGTGTA,-0.174
19,GCTGCGTA,-0.289
20,GTCCAATA,0.0769
21,GAAGGGCC,0.00364
22,GAGACGCA,0.0699
23,GCCTGCGC,0.00515
24,ACACCGGA,0.357
25,GACGTAAA,-0.0886

row,Sequence,PBM E-score
1,GTAACCAA,0.0909
2,ACTTTCAA,0.0377
3,GATAAGAC,-0.0749
4,GAGACATC,0.0232
5,GACTACTA,-0.163
6,CATGCGGG,0.0831
7,CAAGCGTC,0.0217
8,AGGCGGGA,0.0996
9,ATGGCTAC,-0.233
10,AAGAAAAT,0.0748
11,CAGGTACG,-0.107
12,CGCAATCA,0.11
13,CTATAAGC,-0.129
14,AACCGTCC,0.0748
15,ATTAAGAG,-0.0729
16,ACCAGCCC,0.129
17,GATGCCAC,-0.139
18,AGTTTCGC,-0.0119
19,ACCTTAAC,-0.0597
20,GGTGTATA,-0.173
21,CATGTAGA,-0.0539
22,GCTGGATA,-0.149
23,ATCTGCAC,0.0185
24,GACTTTCC,0.176
25,AGACGATG,-0.0893

row,Sequence,PBM E-score
1,CACCACAC,0.0302
2,CGTGACAG,-0.0957
3,ATCCGACA,0.211
4,AGCGCGGG,0.324
5,CCGAAGCA,0.0824
6,CAACATTG,-0.0585
7,AACAGATA,-0.0677
8,ACCTATAA,-0.0817
9,CTGCTGTC,0.101
10,ATCGAGTC,-0.0326
11,ACCAGGCC,0.00289
12,TAAATCGA,0.0127
13,CAGTGGGG,-0.129
14,GAGGAAAC,0.053
15,CCCGCTAA,0.0811
16,GATGCCTA,-0.261
17,GCGGTGCC,0.105
18,GACTTACA,-0.318
19,CACTAGTA,-0.123
20,CGTAAAGA,-0.236
21,CAGACCCA,-0.119
22,CTGCTAGA,-0.0498
